# Assay results from PubChem BioAssay AID1159614 (National Center for Advancing Translational Sciences (NCATS), 2016).
# Hit rate of the full screen: of about 45,000 compounds, about 65 (0.1%) were called active. The call rests on the fitted dose curve; in most records, active means well fitted activation curve with a large enough effect; inconclusive means small, poorly fitted or top-dose-only effect; inactive means no such curve, though single readings can be large or run the other way. Some of the results follow.
# Target: Galactocerebrosidase (Homo sapiens) (UniProt P54803)
# Assay: A Novel Cell-Based Assay to Identify Small Molecules for B -Galactocerebrosidase; further: nearly all actives have a fitted effect of over 65% in size; on activation: 0% is about no effect
# Settings: 145M-Twi-hGALC-G270D cells (Twitcher mouse brain line with human GALC G270D), HMU-beta-Gal fluorescence, 48 h; activation: at the top concentration
# Summary of the method: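 Live 145M-Twi cells (Twitcher mouse brain-derived, GALC-null) stably expressing human GALC-G270D, with a wild-type GALC line, were compound-treated. Residual GALC activity was then read as fluorescence from 0.1 mM final HMU-β-gal at pH 5.2; higher signal means activation.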
# Potency means the concentration at half of the fitted maximal effect.
# UniProt P54803, sequence (P54803 whole entry, looked up): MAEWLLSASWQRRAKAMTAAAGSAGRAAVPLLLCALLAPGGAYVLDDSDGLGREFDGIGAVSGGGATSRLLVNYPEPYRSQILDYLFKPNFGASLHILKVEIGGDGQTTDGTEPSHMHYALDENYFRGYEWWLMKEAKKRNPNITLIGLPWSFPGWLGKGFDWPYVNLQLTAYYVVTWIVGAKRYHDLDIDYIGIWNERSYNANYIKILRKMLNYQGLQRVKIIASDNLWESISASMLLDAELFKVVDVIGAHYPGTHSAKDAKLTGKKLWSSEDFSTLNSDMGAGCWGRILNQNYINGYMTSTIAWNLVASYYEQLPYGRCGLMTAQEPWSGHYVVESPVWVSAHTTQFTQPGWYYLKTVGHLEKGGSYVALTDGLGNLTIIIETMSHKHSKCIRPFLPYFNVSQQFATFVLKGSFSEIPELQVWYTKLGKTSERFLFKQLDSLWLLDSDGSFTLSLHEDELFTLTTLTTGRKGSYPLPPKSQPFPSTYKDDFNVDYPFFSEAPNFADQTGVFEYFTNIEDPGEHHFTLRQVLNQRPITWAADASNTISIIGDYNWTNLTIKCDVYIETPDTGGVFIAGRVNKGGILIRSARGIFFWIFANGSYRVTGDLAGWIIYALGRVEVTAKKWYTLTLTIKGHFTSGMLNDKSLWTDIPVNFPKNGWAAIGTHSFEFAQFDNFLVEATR
Structure (SMILES),activation,Potency
Nc1ccc(Sc2ccc(N)cc2)cc1,inactive: -3.25% [at 114 µM],–
Cc1ccc(NC(=O)N(Cc2ccc3c(c2)OCO3)C2CCN(Cc3ccccc3)CC2)cc1C,inactive: -5.54%,–
CC(C)=CC1C(C(=O)OCc2cccc(Oc3ccccc3)c2)C1(C)C (stereo not given),inactive: -14.1%,–
Cc1cc(OCC(=O)N2CCN(CCc3ccncc3)CC2)ccc1Cl,inactive: -4.47%,–
CSc1ccc(/C=C/c2nc3ccccc3c(=O)n2-c2cccc(Cl)c2C)cc1,inactive: -8.17%,–
O=C(O)c1cc(Oc2ccc(C(F)(F)F)cc2Cl)ccc1[N+](=O)[O-],inactive: -11.2%,–
Cc1ncc2n1-c1ccc(Cl)cc1C(c1ccccc1F)=NC2,inactive: -11.7%,–
N#Cc1cc2c(nc1SCC(=O)Nc1ccc(C(F)(F)F)cc1)C1CCN2CC1,inactive: -23.4%,–
COc1ccc(-n2c(/C=C\c3ccccc3F)nc3ccccc3c2=O)c(OC)c1,inactive: -21%,–
CC(C)c1ccc(OCC(=O)N2CCN(CCc3ccncc3)CC2)cc1,inactive: 5.56%,–
CCOC(=O)NC(C)(C)Cc1ccc(Cl)cc1,inactive: -16.4%,–
N[C@H]1CN(c2c(F)cc3c(=O)c(C(=O)O)cn(C4C[C@@H]4F)c3c2Cl)CC12CC2 (stereo not given in full),inactive: -37%,–
CNC(=O)NC(O)C(Cl)(Cl)Cl (stereo not given),inactive: -1.57%,–
CCN[C@@H](C)Cc1cccc(C(F)(F)F)c1,inactive: -6.47%,–
CCOC(=O)Cn1cccc1-c1nc(-c2ccc(OC)cc2)c(-c2ccc(OC)cc2)s1,inactive: -11.4%,–
CCc1cccc(NC(=O)CN2C(=O)CN=C(c3ccccc3F)c3cc(Cl)ccc32)c1,inactive: -10.9%,–
COc1ccc(OC)c(C(c2c(O)c3ccccc3oc2=O)c2c(C)n(C)n(-c3ccccc3)c2=O)c1 (stereo not given),inactive: -18%,–
O=C(Nc1ccc(Cl)cc1)Nc1ccc(Cl)c(C(F)(F)F)c1,inactive: -34.4%,–
CCC(=O)OC1(c2ccccc2)CCN(C)CC1,inactive: 5.39% [at 129 µM],–
Cc1ccc2c(c1)C1CN(C)CCC1N2 (stereo not given),inactive: -11.9% [at 23.8 µM],–
O=C(O)CCCc1ccc(N(CCCl)CCCl)cc1,inactive: -14.7%,–
CCCCOC(=O)c1ccccc1C(=O)OCc1ccccc1,inactive: -13.9% [at 114 µM],–
COc1cccc(C(=O)CCN[C@@H](C)[C@H](O)c2ccccc2)c1,inactive: 4.73%,–

Structure (SMILES),activation,Potency
C#CCOC(C(=O)OCCN(C)C)(c1ccccc1)c1ccccc1,inactive: -5.3%,–
O=C(O)[C@@H](O)[C@H](O)[C@H](O)[C@@H](O)C(=O)O,inactive: -13.5%,–
COc1ccc(C(=O)N2CCCC2=O)cc1,inactive: -12.2%,–
Cc1cccc(Cn2cccc(C(=O)Nc3cc(C)on3)c2=O)c1,inactive: -3.46%,–
CN1C(=S)CN=C(c2ccccc2)c2cc(Cl)ccc21,inactive: -17.6%,–
COc1ccc(OC)c(CC(C)N)c1 (stereo not given),inactive: -2.47% [at 129 µM],–
COc1ccc(C(=O)N2CCN(c3nc4c(OC)cccc4s3)CC2)cc1OC,inactive: -51.6%,–
CSc1ccc(CN2CCN(C(=O)COc3cccc(C)c3)CC2)cc1,inactive: -29.1%,–
COc1cccc(NC(=O)c2ccc3c(=O)n4nc(Nc5ccccc5OC)sc4nc3c2)c1,inactive: -31.1%,–
Cc1cccc(-n2c(/C=C/c3c[nH]c4ccccc34)nc3ccccc3c2=O)c1,inactive: -15.6%,–
COc1ccc(-c2nc(CN3C(=O)CN=C(c4ccccc4)c4ccccc43)c(C)o2)cc1,inactive: -2.32%,–
O=C1c2ccccc2C(=O)C1C(=O)C(c1ccccc1)c1ccccc1,inactive: -11.6%,–
NC1(c2ccccc2)CCCCC1,inactive: -5.32% [at 114 µM],–
Nc1ccncc1,inactive: -19.4%,–
C[N+]1(CCF)[C@@H]2CC[C@H]1CC(OC(=O)C(O)(c1ccccc1)c1ccccc1)C2 (stereo not given in full),inactive: -8.09%,–
CC(C)=CC1C(C(=O)OCN2C(=O)C3=C(CCCC3)C2=O)C1(C)C (stereo not given),inactive: 0.393%,–
COc1cc(C[C@@H](C)N)c(OC)cc1C,inactive: -4.38% [at 129 µM],–
Cc1ncc(CNC(=O)N(CCCl)N=O)c(N)n1,inactive: -24.4%,–
Cc1cc(NC(=O)c2cccn(Cc3ccccc3)c2=O)no1,inactive: -14.4%,–
CC(C)(C)NCC(O)c1cc(Cl)c(N)c(C(F)(F)F)c1 (stereo not given),inactive: -7.57%,–
CCCC1=Nc2cc(C(=O)NC3CCC(C)CC3)ccc2Sc2ccccc21 (stereo not given),inactive: -15.3%,–
O=C(CN1C(=O)CN=C(c2ccccc2)c2ccccc21)Nc1cccc(C(F)(F)F)c1,inactive: -7.02%,–
Cc1cccc2sc(NC(=O)c3cccn(Cc4ccccc4)c3=O)nc12,inactive: -11%,–

Structure (SMILES),activation,Potency
Nc1c(C(=O)Nc2cccc(Br)c2)sc2nc3c(cc12)N1CCC3CC1,inactive: -7.56%,–
COc1ccc2c3c1O[C@H]1[C@@H](O)C=C[C@H]4[C@@H](C2)N(C)CC[C@@]341,inactive: -6.17% [at 114 µM],–
CCC1(c2ccccc2)CCC(=O)NC1=O (stereo not given),inactive: -16.8%,–
c1cc2ccc3cccc4ccc(c1)c2c34,inactive: -15.8% [at 129 µM],–
c1ccc(N2CCNCC2)cc1,inactive: -15.2%,–
Oc1ccc(Cl)cc1Cc1ccccc1,inactive,–
CCCCC(CC)COC(=O)c1ccccc1C(=O)O (stereo not given),inactive: -17.3% [at 114 µM],–
CCCCC(CC)COC(=O)c1ccccc1C(=O)OCC(CC)CCCC (stereo not given),inactive: -10.8% [at 114 µM],–
CCOc1ccc(CN(CCc2ccc3c(c2)OCO3)Cc2cccc(C)c2)cc1,inactive: -27.5%,–
Oc1cccc2cccnc12,inactive,–
Cc1cc(OCC(=O)N2CCN(CCc3ccccn3)CC2)cc(C)c1Cl,inactive: -16.9%,–
CCN(CC)C(=O)c1ccc(NC(=O)CCn2nc(-c3ccc(C)cc3)c3ccccc3c2=O)cc1,inactive: -42%,–
COc1ccc(C(=O)NCCn2cc(SC(C)c3ccccc3)c3ccccc32)cc1OC (stereo not given),inactive: -33%,–
Cc1cccc(C2CC(=O)Oc3c2c(=O)oc2ccccc32)c1 (stereo not given),inactive: 2.11%,–
COc1ccc(CN2CCN(C(=O)COc3ccccc3)CC2)c(OC)c1,inactive: 4.23%,–
COc1cc(CC(C)N)cc(OC)c1OC (stereo not given),inactive: 6.35% [at 129 µM],–
CN1C[C@@H](NS(=O)(=O)N(C)C)C[C@@H]2c3cccc4c3c(cn4C)C[C@H]21,inactive: -16.5%,–
Cc1ccc(Cl)c(O)c1,inactive: -14.5%,–
CCN(CC)C(=O)c1ccc(NC(=O)CCn2nc(-c3ccc(Cl)cc3)c3ccccc3c2=O)cc1,inactive: -16.5%,–
COc1ccc2[nH]cc(CCN(C(C)C)C(C)C)c2c1,inactive: -7.89% [at 129 µM],–
C[C@]12CC[C@H]3[C@@H](CCC4=CC(=O)CC[C@@H]43)[C@@H]1CC[C@@H]2OC(=O)CCc1ccccc1,inactive: -18.4%,–
O=C1NCN(c2ccccc2)C12CCN(CC1COc3ccccc3O1)CC2 (stereo not given),inactive: -12.7%,–
Clc1ccc(CO/N=C(\Cn2ccnc2)c2ccc(Cl)cc2Cl)c(Cl)c1,inactive: -4.69%,–

Structure (SMILES),activation,Potency
c1ccc2nc(N3CCNCC3)ccc2c1,inactive: -2.06%,–
COC(=O)c1ccc(NC(=O)c2cccn(Cc3ccccc3C)c2=O)cc1,inactive: -10.8%,–
CC(C)(N)Cc1ccccc1Cl,inactive: -9.48%,–
O=S1(=O)N(Cc2ccccc2)CCCN1Cc1ccc(F)cc1Cl,inactive: -2.56%,–
O=c1oc2ccccc2c(O)c1C(CC(O)c1ccc(-c2ccc(Br)cc2)cc1)c1ccccc1 (stereo not given),inactive: -19.5%,–
Cc1ccc(OCC(=O)Nc2ccc(Cl)cc2C(=O)c2ccccc2)cc1,inactive: 5.52%,–
OCCCBr,inactive: -17.4% [at 114 µM],–
CC(CCc1ccccc1)NC(C)C(O)c1ccc(O)cc1 (stereo not given),inactive: -9.38%,–
CCCOC(=O)Cc1ccc(OCC(=O)N(CC)CC)c(OC)c1,inactive: -19%,–
O=C(Nc1ccc(Br)cc1C(=O)c1ccccc1)c1ccccc1,inactive: -12.2%,–
CCCOC(=O)c1cncn1C(C)c1ccccc1 (stereo not given),inactive: -11.8%,–
CCCC[N+]1(C)[C@@H]2CC(OC(=O)[C@H](CO)c3ccccc3)C[C@H]1[C@@H]1O[C@@H]12 (stereo not given in full),inactive: -6.11%,–
CCOC(=O)c1ccc(NC(=O)c2sc3nc4c(cc3c2N)N2CCC4CC2)cc1,–,active: 14.1 µM
CN(C)CCc1c[nH]c2ccc(O)cc12,inactive: -7.95% [at 114 µM],–
O=C(CCCCCCCCC#CI)Oc1ccccc1,inactive: -12.6%,–
COc1ccc(OCC(=O)N2CCN(Cc3cccc(OC)c3OC)CC2)cc1,inactive: -24%,–
NNc1ccccc1,inactive: -12.4%,–
NCCc1cc(O)c(O)cc1O,inactive: -18.7%,–
Oc1c(Br)cc(Br)cc1Br,inactive: -11.8%,–
Cc1cc(C)cc(OCC(=O)Nc2ccc(Cl)cc2C(=O)c2ccccc2)c1,inactive: -1.01%,–
O=C(C1CCN(S(=O)(=O)c2ccc(Br)s2)CC1)N1CCN(c2cccc(C(F)(F)F)c2)CC1,inactive: -38.4%,–
Clc1ccc(CSC(Cn2ccnc2)c2ccc(Cl)cc2Cl)cc1 (stereo not given),inactive: 5.31%,–
Clc1cccc(N2CCNCC2)c1,inactive: -17.6%,–

Structure (SMILES),activation,Potency
CCCN(CCC)C(=O)Cc1c(-c2ccc(Cl)cc2)nc2ccc(Cl)cn12,inactive: -14.1%,–
COc1ccccc1NC(=O)N(Cc1ccc2c(c1)OCO2)C1CCN(Cc2ccccc2)CC1,inactive: -11.8%,–
COc1ccc(N2CCN(c3ncnc4c3nc3n4CCCCC3)CC2)cc1,inactive: -0.0405%,–
CCN(CC)CCOC(=O)C(C)(c1ccccc1)c1ccccc1,inactive: -18.9%,–
Cc1cccc(-n2c(/C=C/c3c(C)[nH]c4ccccc34)nc3ccccc3c2=O)c1,inactive: -3.07%,–
Nc1c(C(=O)Nc2ccc(Br)cc2F)sc2nc3c(cc12)N1CCC3CC1,inactive: -1.55%,–
O=C(Nc1ccc(Cl)cc1C(=O)c1ccccc1)c1ccccc1Br,inactive: -1.13%,–
CN1CCc2cc(Cl)c(O)cc2[C@H]2c3ccccc3CC[C@@H]21,inactive: -14.7%,–
COc1cc(C(c2c(O)c3ccccc3oc2=O)c2c(C)n(C)n(-c3ccccc3)c2=O)ccc1OCC(=O)O (stereo not given),inactive: -14.7%,–
Cc1c(Cl)cccc1NC(=O)CN1C(=O)C(C)N=C(c2ccccc2)c2ccccc21 (stereo not given),inactive: -17.2%,–
CCOC(=O)N1CCN(c2ncc3c(n2)CC(c2ccccc2O)CC3=O)CC1 (stereo not given),inactive: -36.4%,–
Cc1ccc(-c2nc3ccc(C)cn3c2CC(=O)N(C)C)cc1,inactive: -15.4%,–
O=C(Nc1ccc2c(c1)OCO2)c1cccn(Cc2cccc(F)c2)c1=O,inactive: -8.07%,–
Cn1cc(/C=C/c2nc3ccccc3c(=O)n2-c2ccccc2)c2ccccc21,inactive: 4.88%,–
Nc1ccc(N=Nc2ccccc2)cc1,inactive: -7.06% [at 114 µM],–
Nc1nc(N)nc(NC2CC2)n1,inactive: 1.79%,–
COc1cc(C(c2c(O)c3ccccc3oc2=O)c2c(C)n(C)n(-c3ccccc3)c2=O)ccc1O (stereo not given),inactive: -10.9%,–
C[C@H](N)[C@H](O)c1ccc(O)c(O)c1,inactive: 19.2%,–
C[C@]12CCC(=O)C=C1CC[C@@H]1[C@H]3CC[C@](C)(O)[C@@]3(C)CC[C@@H]12,inactive: 1.2% [at 114 µM],–
CN1CCN(c2oc(-c3ccc(COc4ccccc4)o3)nc2C#N)CC1,inactive: -16.6%,–
CC(C)N(CCC(C(N)=O)(c1ccccc1)c1ccccn1)C(C)C (stereo not given),inactive: -12.6%,–
CCCCOC(=O)CCCCCCCCC(=O)OCCCC,inactive: -35.1%,–
O=c1c2ccccc2nc(/C=C/c2ccccc2)n1-c1ccccc1F,inactive: -12.8%,–
